These results are taken from the antibiotic and cytotoxicity screens of Wong et al. (2023).

The subject of one test is HSkMC. Description: cytotoxicity call (relative viability < 0.9). The settings on record: 10 µM.
The next test concerns HepG2. Description: cytotoxicity call (relative viability < 0.9). The settings on record: 10 µM.
Another test deals with S. aureus RN4220. Description: growth inhibition call (relative growth <= 0.2). Conditions: 50 µM.

The list shows a part of the results.

Consider `COc1ccc(NC(=O)N(C)C[C@@H]2Oc3ccc(NC(=O)CCCN(C)C)cc3C(=O)N([C@H](C)CO)C[C@H]2C)cc1`, for which the cytotoxicity call in the test with HSkMC and in the test with HepG2 was “inactive” throughout. In addition, the growth inhibition call in the test with S. aureus RN4220 is “inactive”.
Regarding `COc1ccc(NC(=O)N(C)C[C@H]2Oc3ncc(C#C[C@H](C)O)cc3C(=O)N([C@@H](C)CO)C[C@@H]2C)cc1`, the cytotoxicity call in the test on HSkMC and in the test on HepG2 was “inactive” throughout. For the same compound, the growth inhibition call with S. aureus RN4220 was “inactive”.
In the case of `C[C@@H]1CN([C@H](C)CO)C(=O)c2cc(NC(=O)CCCCCC(=O)Nc3ccccc3N)ccc2O[C@@H](C)CCCCO[C@@H]1CN(C)C(=O)Cc1ccccc1`, the cytotoxicity call in the test with HSkMC and with HepG2 was “inactive” each time. The growth inhibition call in the test on S. aureus RN4220 was “inactive”.
For the compound `O=C1NCC[C@H]2[C@H]1N=C(N1CCCCC1)N2[C@H]1O[C@H](CO)[C@@H](O)[C@@H]1O`, the cytotoxicity call in the test on HSkMC and in the test on HepG2 was “inactive” in each case. Moreover, the growth inhibition call in the test on S. aureus RN4220 was “inactive”.
Consider `O=C(CCCCCC(=O)Nc1ccccc1O)N/N=C/[C@H](O)[C@@H](O)[C@H](O)[C@H](O)CO`, for which the cytotoxicity call in the test with HSkMC and in the test with HepG2 was “inactive” each time. The growth inhibition call in the test with S. aureus RN4220 is “inactive”.
As to `C[C@@H]1CN([C@@H](C)CO)C(=O)c2cc(NC(=O)Nc3ccccc3)ccc2O[C@@H](C)CCCCO[C@@H]1CN(C)Cc1ccc(C(=O)O)cc1`, the cytotoxicity call in the test on HSkMC and with HepG2 was “inactive” throughout. In the test on S. aureus RN4220, the growth inhibition call was “inactive”.
With `O=C(C[C@@H]1C[C@H]2c3cc(NC(=O)c4cccnc4)ccc3O[C@H]2[C@H](CO)O1)NCc1cc(F)ccc1F`, the cytotoxicity call with HSkMC and with HepG2 was “inactive” each time. The growth inhibition call in the test on S. aureus RN4220 is “inactive”.
For `C[C@H]1CN([C@@H](C)CO)C(=O)c2cc(NC(=O)C3CC3)ccc2O[C@H]1CN(C)S(=O)(=O)c1cn(C)cn1`, the cytotoxicity call in the test with HSkMC and in the test on HepG2 was “inactive” in each case. In the test on S. aureus RN4220, the growth inhibition call is “inactive”.
For the compound `C[C@@H]1CN([C@@H](C)CO)C(=O)Cc2cc(NC(=O)Nc3ccc4c(c3)OCO4)ccc2O[C@H]1CN(C)S(C)(=O)=O`, the cytotoxicity call in the test with HSkMC and with HepG2 was “inactive” each time. For the same compound, the growth inhibition call in the test with S. aureus RN4220 is “inactive”.
Turning to `C[C@@H]1CN([C@H](C)CO)C(=O)c2cc(NC(=O)Nc3cccc4ccccc34)ccc2O[C@@H](C)CCCCO[C@H]1CN(C)Cc1ccc(C(=O)O)cc1`, the cytotoxicity call in the test with HSkMC and with HepG2 was “inactive” in each case. For the same compound, in the test on S. aureus RN4220, the growth inhibition call was “inactive”.
With `C[C@H]1CN([C@@H](C)CO)C(=O)c2c(c3ccccc3n2C)-c2ccccc2CO[C@@H]1CN(C)C(=O)c1cc(Cl)cc(Cl)c1`, the cytotoxicity call with HSkMC and in the test on HepG2 was “inactive” throughout. Further, the growth inhibition call with S. aureus RN4220 is “inactive”.
Take `COc1ccc([C@H]2CC=CC[C@H](C)Oc3ccccc3C(=O)N(C)[C@H](Cc3ccccc3)C(=O)N2)c(OC)c1`: the cytotoxicity call with HSkMC and in the test with HepG2 was “inactive” each time. Moreover, in the test on S. aureus RN4220, the growth inhibition call was “inactive”.
For `COc1cccc(-c2cn(CC[C@@H]3CC[C@@H](NC(=O)CN(C)C)[C@H](CO)O3)nn2)c1`, the cytotoxicity call with HSkMC and in the test on HepG2 was “inactive” throughout. Besides, the growth inhibition call in the test on S. aureus RN4220 was “inactive”.
Take `Cc1noc(C)c1S(=O)(=O)Nc1ccc2c(c1)C(=O)N([C@@H](C)CO)C[C@H](C)[C@@H](CN(C)C(=O)NC(C)C)O2`: the cytotoxicity call in the test on HSkMC and in the test on HepG2 was “inactive” in each case. The growth inhibition call with S. aureus RN4220 was “inactive”.
On to `C[C@H]1CN([C@@H](C)CO)C(=O)Cc2cc(NS(=O)(=O)c3cn(C)cn3)ccc2O[C@H]1CN(C)C(=O)Nc1ccccc1`, for which the cytotoxicity call in the test with HSkMC and in the test with HepG2 was “inactive” throughout. Further, the growth inhibition call with S. aureus RN4220 is “inactive”.
Regarding `C[C@@H]1CN([C@H](C)CO)C(=O)Cc2cc(NC(=O)Nc3ccc(C(F)(F)F)cc3)ccc2O[C@H]1CN(C)Cc1ccc(-c2ccccc2)cc1`, the cytotoxicity call in the test on HSkMC and in the test with HepG2 was “active” each time. Also, the growth inhibition call in the test on S. aureus RN4220 is “inactive”.
Consider `CC(C)NC(=O)Nc1ccc2c(c1)C(=O)N([C@@H](C)CO)C[C@H](C)[C@H](CN(C)S(=O)(=O)c1cccs1)O2`, for which the cytotoxicity call in the test with HSkMC and with HepG2 was “inactive” each time. For the same compound, in the test with S. aureus RN4220, the growth inhibition call is “inactive”.
As for `CCN(CC)S(=O)(=O)c1ccc(C(=O)O)cc1`, the cytotoxicity call with HSkMC and in the test on HepG2 was “inactive” in each case. Also, in the test on S. aureus RN4220, the growth inhibition call was “inactive”.
On to `C[C@H](O)C#Cc1cnc2c(c1)C(=O)N([C@@H](C)CO)C[C@@H](C)[C@@H](CN(C)C(=O)CN1CCOCC1)O2`, for which the cytotoxicity call in the test with HSkMC and with HepG2 was “inactive” each time. Moreover, the growth inhibition call with S. aureus RN4220 was “inactive”.
Consider `C[C@@H]1CN([C@@H](C)CO)C(=O)c2cc(NC(=O)Nc3ccc4c(c3)OCO4)ccc2O[C@H]1CN(C)Cc1ccc(Cl)c(Cl)c1`, for which, in the test with HSkMC, the cytotoxicity call is “inactive”. Moreover, the cytotoxicity call with HepG2 was “active”. Besides, in the test with S. aureus RN4220, the growth inhibition call was “inactive”.
Regarding `C[C@@H]1CN([C@H](C)CO)C(=O)c2cc(NS(C)(=O)=O)ccc2O[C@@H](C)CCCCO[C@@H]1CN(C)C(=O)CCCN(C)C`, the cytotoxicity call in the test with HSkMC and in the test with HepG2 was “inactive” each time. Besides, the growth inhibition call in the test with S. aureus RN4220 was “inactive”.
With `C[C@@H]1CN([C@H](C)CO)S(=O)(=O)c2ccc(C#Cc3ccc(F)cc3)cc2O[C@@H]1CN(C)C(=O)c1ccccn1`, the cytotoxicity call with HSkMC and in the test with HepG2 was “inactive” throughout. In the test with S. aureus RN4220, the growth inhibition call was “inactive”.
Take `Cc1ccccc1-c1ccc2c(c1)O[C@H](CN(C)C(=O)Nc1ccc(C(F)(F)F)cc1)[C@@H](C)CN([C@@H](C)CO)S2(=O)=O`: the cytotoxicity call in the test on HSkMC and in the test with HepG2 was “inactive” in each case. Besides, the growth inhibition call in the test with S. aureus RN4220 was “inactive”.
For the compound `O=c1c(-c2ccc(O)cc2)coc2c(C3OC(CO)C(O)C(O)C3O)c(O)ccc12` (centres undefined), the cytotoxicity call in the test with HSkMC and in the test on HepG2 was “inactive” in each case. Further, in the test with S. aureus RN4220, the growth inhibition call was “inactive”.
As to `COc1ccc(NC(=O)N(C)C[C@@H]2Oc3ccc(NS(=O)(=O)c4cn(C)cn4)cc3C(=O)N([C@@H](C)CO)C[C@H]2C)cc1`, the cytotoxicity call in the test with HSkMC and with HepG2 was “inactive” throughout. Further, the growth inhibition call in the test with S. aureus RN4220 was “inactive”.
As for `COc1ccc(S(=O)(=O)N(C)C[C@H]2OCc3cnnn3CCCC(=O)N([C@H](C)CO)C[C@H]2C)cc1`, the cytotoxicity call with HSkMC and in the test with HepG2 was “inactive” throughout. The growth inhibition call in the test with S. aureus RN4220 was “inactive”.
On to `C[C@H]1CN([C@@H](C)CO)C(=O)Cc2cc(NS(=O)(=O)c3cn(C)cn3)ccc2O[C@H]1CN(C)CC1CCCCC1`, for which the cytotoxicity call with HSkMC and in the test with HepG2 was “inactive” throughout. The growth inhibition call in the test with S. aureus RN4220 was “inactive”.
Consider `COc1ccc(S(=O)(=O)Nc2ccc3c(c2)C(=O)N([C@H](C)CO)C[C@H](C)[C@@H](CN(C)C(=O)CCC(F)(F)F)OCCCC[C@@H](C)O3)cc1`, for which the cytotoxicity call in the test on HSkMC (human skeletal muscle cells) and with HepG2 was “inactive” in each case. Further, the growth inhibition call in the test with S. aureus RN4220 was “inactive”.
